# Measured values as given in patent publication US20240059766A1 (VOYAGER THERAPEUTICS, published 2024).
# Non-standard residues stand in square brackets, D forms with d. No end group written: not given here. pT = C[C@@H](OP(=O)(O)O)[C@H](N)C(=O)O; pS = N[C@@H](COP(=O)(O)O)C(=O)O
# T1: Tau204-222 phospho-peptide (pT212) (human, also: SCBiot-(dPEG4) in the ELISA)
# T1 peptide: GTPGSRSR[pT]PSLPTPPTRE
# T2: Tau204-222 phospho-peptide (pS214) (human, also: SCBiot-(dPEG4) in the ELISA)
# T2 peptide: GTPGSRSRTP[pS]LPTPPTRE
# T3: Tau204-222 phospho-peptide (pT217) (human, also: SCBiot-(dPEG4) in the ELISA)
# T3 peptide: GTPGSRSRTPSLP[pT]PPTRE
# T4: Tau204-222 phospho-peptide (pT212/pS214) (human, also: SCBiot-(dPEG4) in the ELISA)
# T4 peptide: GTPGSRSR[pT]P[pS]LPTPPTRE
# T5: Tau204-222 phospho-peptide (pT212/pT217) (human, also: SCBiot-(dPEG4) in the ELISA)
# T5 peptide: GTPGSRSR[pT]PSLP[pT]PPTRE
# T6: Tau204-222 phospho-peptide (pS214/pT217) (human, also: SCBiot-(dPEG4) in the ELISA)
# T6 peptide: GTPGSRSRTP[pS]LP[pT]PPTRE
# T7: Tau204-222 phospho-peptide (pT212/pS214/pT217) (human, also: SCBiot-(dPEG4) in the ELISA)
# T7 peptide: GTPGSRSR[pT]P[pS]LP[pT]PPTRE
# Legend:
# [1] = target: T1, Tau204-222 phospho-peptide (pT212); assay: one point ELISA
# [2] = target: T2, Tau204-222 phospho-peptide (pS214); assay: one point ELISA
# [3] = target: T3, Tau204-222 phospho-peptide (pT217); assay: one point ELISA
# [4] = target: T4, Tau204-222 phospho-peptide (pT212/pS214); assay: one point ELISA
# [5] = target: T5, Tau204-222 phospho-peptide (pT212/pT217); assay: one point ELISA
# [6] = target: T6, Tau204-222 phospho-peptide (pS214/pT217); assay: one point ELISA
# [7] = target: T7, Tau204-222 phospho-peptide …; assay: one point ELISA
# [8] = target: T1, Tau204-222 phospho-peptide (pT212); assay: one point ELISA
# Text: (§1) One-point ELISA was used to determine differential binding based on the individual phosphorylation patterns of each peptide. OD values (450 nm) were collected (as shown in Table 13), where a stronger positive signal is shown as a higher OD value, which is indicative of increased binding.
# [9] = target: T2, Tau204-222 phospho-peptide (pS214); assay: one point ELISA
# Text: as §1
# [10] = target: T3, Tau204-222 phospho-peptide (pT217); assay: one point ELISA
# Text: as §1
# [11] = target: T4, Tau204-222 phospho-peptide (pT212/pS214); assay: one point ELISA
# Text: as §1
# [12] = target: T5, Tau204-222 phospho-peptide (pT212/pT217); assay: one point ELISA
# Text: as §1
# [13] = target: T6, Tau204-222 phospho-peptide (pS214/pT217); assay: one point ELISA
# Text: as §1
# [14] = target: T7, Tau204-222 phospho-peptide …; assay: one point ELISA
# Text: as §1
# [15] = target: T8, Enriched paired helical filament (ePHF; sarkosyl insoluble tau) (human, UniProt P10636 2-758, pathological (hyperphosphorylated) tau isolated from brain; sites not stated); assay: direct ELISA, coated antigen
# T8 construct: aggregate isolated from AD frontal cortical tissue
# Experimental: A set of recombinant human IgG1 antibodies were prepared with clone-specific variable domain pairs selected from those presented in Table 1 and human IgG1 constant domains. These candidate antibodies were analyzed for binding to ePHF and specificity for ePHF over wild type tau by direct ELISA.
# For direct ePHF and wildtype tau ELISA, plates were first coated with ePHF or wild type tau. Antigen solutions were prepared in PBS and 50 μL were pipetted into each well. Plates were covered and incubated for one hour at 37° C. or overnight at 4° C. Plates were then washed and blocked by addition of 150 μl of blocking buffer to each well and incubated one hour at room temperature. Plates were then washed before addition of serially diluted candidate antibody samples prepared in blocking buffer. Detection of candidate antibody binding was carried out by washing plates and adding a solution of enzyme-labeled secondary antibody in blocking buffer to each well. Secondary antibody binding was detected by addition of substrate and spectrophotometric analysis of resulting reaction product.
# iPHF = iPHF (UniProt P10636-8 2-441); assay: BLI (Octet), antibody on biosensor tip
# iPHF, sequence (P10636 other isoform, or with tags, fused parts or gaps): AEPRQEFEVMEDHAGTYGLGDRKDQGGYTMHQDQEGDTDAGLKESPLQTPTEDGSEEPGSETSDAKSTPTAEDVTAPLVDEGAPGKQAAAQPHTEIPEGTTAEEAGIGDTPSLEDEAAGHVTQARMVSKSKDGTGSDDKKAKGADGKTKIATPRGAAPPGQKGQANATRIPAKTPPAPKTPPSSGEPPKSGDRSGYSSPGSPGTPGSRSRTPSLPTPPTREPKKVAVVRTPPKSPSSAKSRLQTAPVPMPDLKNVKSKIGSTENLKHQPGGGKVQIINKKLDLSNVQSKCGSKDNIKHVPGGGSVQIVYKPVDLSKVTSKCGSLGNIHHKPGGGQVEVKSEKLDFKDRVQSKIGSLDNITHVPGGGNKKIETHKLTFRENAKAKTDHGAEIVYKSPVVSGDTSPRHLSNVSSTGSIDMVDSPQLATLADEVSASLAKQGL
# Experimental: Anti-human tau antibodies were assessed for affinity for iPHF by Octet (ForteBio, Menlo Park, CA) analysis. A set of recombinant human IgG1 antibodies were prepared with clone-specific variable domain pairs selected from those presented in Table 1 and human IgG1 constant domains. Candidate antibodies were immobilized on biosensor tips (ForteBio) in kinetic buffer (ForteBio). Biosensor tips were then washed before introduction of a solution of iPHF in kinetic buffer for analysis of association and dissociation with candidate antibodies.
binder,measurement,setting,value
"VY002 (antibody, V domains shown) VH: [skipping about 100 residues]DYPKDVWGQGTTVTVSS VL: DIVMTQSPDSLAVSLGERATINCKSSQSVLYSSKNKNYLAWYQQKPGQPPKLLIYWASTRESGVPDRFSGSGSGTDFTLAISSLQAEDVAVYYCQQYYSSPYTFGQGTKLEIK",binding result,[1],no binding
same,binding result,[2],no binding
same,binding result,[3],no binding
same,binding result,[4],no binding
same,binding result,[5],no binding
same,binding result,[6],no binding
same,binding result,[7],no binding
same,OD450,[8],0.055 OD450 nm
same,OD450,[9],0.058 OD450 nm
same,OD450,[10],0.068 OD450 nm
same,OD450,[11],0.055 OD450 nm
same,OD450,[12],0.06 OD450 nm
same,OD450,[13],0.062 OD450 nm
same,OD450,[14],0.06 OD450 nm
same,EC50,[15],0.03 nM
same,Kd,iPHF,1 nM
